The record followed here is PubChem BioAssay (NCI).

Among the test systems are CCRF-CEM leukemia; MOLT-4 leukemia; HL-60(TB) leukemia; SR leukemia; HOP-92 NSCLC; SK-MEL-2 melanoma; OVCAR-4 ovarian; LOX IMVI melanoma; EKVX NSCLC; 786-0 renal.
What all share (assay): NCI-60 cell line screen, 48 h

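Cells were grown in 96-well plates and exposed to each compound for 48 hours at five concentrations; endpoints were interpolated linearly between bracketing concentrations, or set to the highest concentration if not reached. GI50: concentration for 50% inhibition of growth.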 A number of entries come with more than one value. This list holds those alone. An entry can have further records. For part of these data: The values listed for one entry are repeats across runs, samples, wells, individuals or studies. A tag in brackets gives the origin of a value. A, B and so on number the origins entry by entry.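 At the TGI there is no net growth.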 For part of these data: Records of one sample usually come from different ranges of test concentrations, which the source does not state; some values may only mark the edge of a range. Some results are limits rather than exact numbers.

As to `COC1C(O)=C2C(=O)OC(C)(O)/C=C/C=C\C=C/C=C/C(c3ccccc3)NC(=O)/C=C/C=C/C=C/C=C/C2(C)C1O` (configuration not stated), the TGI in the experiment with CCRF-CEM leukemia was 47.8 nM and > 100 µM; with MOLT-4 leukemia, 57.7 nM and 612 nM; in the experiment with HL-60(TB) leukemia it was 464 nM and > 100 µM; with SR leukemia, 41.4 nM and > 100 µM.
In the case of `Cn1cnc([N+](=O)[O-])c1Sc1ncnc2nc[nH]c12`, the GI50 was 341 nM [sample A, mean of 2 tests] and 17.7 µM [sample B, 1 test] with HOP-92 NSCLC; > 39.8 µM [sample A, mean of 2 tests] and 3.38 µM [sample B, 1 test] in the experiment with SK-MEL-2 melanoma.
Turning to `CCCCS(=N)(=O)CC[C@H](N)C(=O)O` (some centres not stated), the TGI with OVCAR-4 ovarian is 2.87 mM and 45.2 µM; in the experiment on LOX IMVI melanoma, 967 µM and 4.57 µM; in the experiment with HOP-92 NSCLC, 355 µM and > 10 mM.
In the case of `Nc1nc(N)c2ncn(CC(CO)CC(c3ccccc3)P(=O)(O)O)c2n1` (configuration not stated), in the experiment with EKVX NSCLC, the GI50 was > 100 µM [sample A, 1 test] and 780 nM [sample B, 1 test]. In the experiment on 786-0 renal, the GI50 was > 100 µM [sample A, 1 test] and 1.35 µM [sample B, 1 test]; the TGI is > 100 µM [sample A, 1 test] and 4.32 µM [sample B, 1 test].
